Data published in the supplement of paper PMC10369915.
The other results are listed elsewhere or left out. Rule as the data show it: active = 3.2 or more and inactive = the rest. Most of these values are background signal.

Target: SHP2 C-SH2 domain E139D
Experiment: enrichment score (SH2-bound / input frequency) (ratio); bacterial display of known human phosphotyrosine sites (pTyr-Var adds point mutants) read by sequencing; higher = stronger binding; tyrosines were phosphorylated by kinases first
Details: peptide library: pTyr-Var
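Also: displayed peptides selected on beads carrying the immobilized SH2 domain, with library peptides lacking any tyrosine serving as negative controls.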

Row | Binder | enrichment score
1 | AGHEEYSAMRD [KRAS_Y64_Q61H] | inactive: 0.441
2 | RTVDVYFGPQM [KIRREL3_Y332_R336Q] | inactive: 0.96
3 | DRLASYSDKVR [KRT10_Y160_L161S] | inactive: 0.699
4 | HFVDEYDRTIE [KRAS_Y32_P34R] | inactive: 0.62
5 | TGQEEYSAMRD [KRAS_Y64_A59T] | inactive: 0.412
6 | YHLGKYLQEVL [KLB_Y910_Y906H] | inactive: 0.919
7 | SIKDKYVTALF [KCNH2_Y611_YF] | inactive: 0.841
8 | SGGGSYGSGGG [KRT1_Y539] | inactive: 0.671
9 | FFLGKYLQEVL [KLB_Y910_YF] | inactive: 3.04
10 | SETSRYLSELF [KCNJ3_Y67_D70E] | inactive: 0.844
11 | GKSFIYAAFHA [KCNT1_Y563_T562I] | inactive: 2.1
12 | SSYDTYHLSRE [KIR3DL2_Y253_I252T] | inactive: 0.557
13 | AKYLGYPPPEI [KDR_Y357] | inactive: 0.828
14 | DHKRQYELLKL [KIF4B_Y684_R680H] | inactive: 1.13
15 | QEIATCRRLLE [KRT14_Y415_Y415C] | inactive: 0.419
16 | LESETYRRLLD [KRT12_Y429_I426S] | inactive: 0.52
17 | LITILYIGFLG [KCNQ1_Y267_T265I] | active: 3.64
18 | PQEVTYAQLDH [KIR3DL2_Y398] | inactive: 1.67

Target: SHP2 C-SH2 domain wild-type
Experiment: as above
Details: peptide library: pTyr-Var

Row | Binder | enrichment score
19 | AGHEEYSAMRD [KRAS_Y64_Q61H] | inactive: 0.392
20 | RTVDVYFGPQM [KIRREL3_Y332_R336Q] | inactive: 1.08
21 | DRLASYSDKVR [KRT10_Y160_L161S] | inactive: 0.747
22 | HFVDEYDRTIE [KRAS_Y32_P34R] | inactive: 0.818
23 | TGQEEYSAMRD [KRAS_Y64_A59T] | inactive: 0.438
24 | YHLGKYLQEVL [KLB_Y910_Y906H] | inactive: 1.03
25 | SIKDKYVTALF [KCNH2_Y611_YF] | inactive: 0.85
26 | SGGGSYGSGGG [KRT1_Y539] | inactive: 0.705
27 | FFLGKYLQEVL [KLB_Y910_YF] | inactive: 2.32
28 | SETSRYLSELF [KCNJ3_Y67_D70E] | inactive: 0.665
29 | GKSFIYAAFHA [KCNT1_Y563_T562I] | inactive: 2.47
30 | SSYDTYHLSRE [KIR3DL2_Y253_I252T] | inactive: 0.442
31 | AKYLGYPPPEI [KDR_Y357] | inactive: 0.972
32 | DHKRQYELLKL [KIF4B_Y684_R680H] | inactive: 0.741
33 | QEIATCRRLLE [KRT14_Y415_Y415C] | inactive: 0.387
34 | LESETYRRLLD [KRT12_Y429_I426S] | inactive: 0.873
35 | LITILYIGFLG [KCNQ1_Y267_T265I] | active: 4.42
36 | PQEVTYAQLDH [KIR3DL2_Y398] | active: 3.25

Target: SHP2 N-SH2 domain L43F
Experiment: as above
Details: peptide library: pTyr-Var

Row | Binder | enrichment score
37 | AGHEEYSAMRD [KRAS_Y64_Q61H] | inactive: 0.549
38 | RTVDVYFGPQM [KIRREL3_Y332_R336Q] | inactive: 1.05
39 | DRLASYSDKVR [KRT10_Y160_L161S] | inactive: 0.619
40 | HFVDEYDRTIE [KRAS_Y32_P34R] | inactive: 0.794
41 | TGQEEYSAMRD [KRAS_Y64_A59T] | inactive: 0.346
42 | YHLGKYLQEVL [KLB_Y910_Y906H] | inactive: 0.83
43 | SIKDKYVTALF [KCNH2_Y611_YF] | inactive: 1.71
44 | SGGGSYGSGGG [KRT1_Y539] | inactive: 0.618
45 | FFLGKYLQEVL [KLB_Y910_YF] | inactive: 3.16
46 | SETSRYLSELF [KCNJ3_Y67_D70E] | inactive: 0.742
47 | GKSFIYAAFHA [KCNT1_Y563_T562I] | inactive: 2.25
48 | SSYDTYHLSRE [KIR3DL2_Y253_I252T] | inactive: 0.528
49 | AKYLGYPPPEI [KDR_Y357] | inactive: 0.791
50 | DHKRQYELLKL [KIF4B_Y684_R680H] | inactive: 0.815
51 | QEIATCRRLLE [KRT14_Y415_Y415C] | inactive: 0.444
52 | LESETYRRLLD [KRT12_Y429_I426S] | inactive: 0.775
53 | LITILYIGFLG [KCNQ1_Y267_T265I] | active: 4.08
54 | PQEVTYAQLDH [KIR3DL2_Y398] | active: 8.1

Target: SHP2 N-SH2 domain T42A
Experiment: as above
Details: peptide library: pTyr-Var

Row | Binder | enrichment score
55 | AGHEEYSAMRD [KRAS_Y64_Q61H] | inactive: 0.429
56 | RTVDVYFGPQM [KIRREL3_Y332_R336Q] | inactive: 0.881
57 | DRLASYSDKVR [KRT10_Y160_L161S] | inactive: 0.641
58 | HFVDEYDRTIE [KRAS_Y32_P34R] | inactive: 0.637
59 | TGQEEYSAMRD [KRAS_Y64_A59T] | inactive: 0.397
60 | YHLGKYLQEVL [KLB_Y910_Y906H] | inactive: 0.692
61 | SIKDKYVTALF [KCNH2_Y611_YF] | inactive: 1.22
62 | SGGGSYGSGGG [KRT1_Y539] | inactive: 0.446
63 | FFLGKYLQEVL [KLB_Y910_YF] | inactive: 2.01
64 | SETSRYLSELF [KCNJ3_Y67_D70E] | inactive: 0.638
65 | GKSFIYAAFHA [KCNT1_Y563_T562I] | inactive: 1.89
66 | SSYDTYHLSRE [KIR3DL2_Y253_I252T] | inactive: 0.453
67 | AKYLGYPPPEI [KDR_Y357] | inactive: 0.717
68 | DHKRQYELLKL [KIF4B_Y684_R680H] | inactive: 0.696
69 | QEIATCRRLLE [KRT14_Y415_Y415C] | inactive: 0.319
70 | LESETYRRLLD [KRT12_Y429_I426S] | inactive: 0.612
71 | LITILYIGFLG [KCNQ1_Y267_T265I] | inactive: 2.89
72 | PQEVTYAQLDH [KIR3DL2_Y398] | active: 10.4

Target: SHP2 N-SH2 domain T52S
Experiment: as above
Details: peptide library: pTyr-Var

Row | Binder | enrichment score
73 | AGHEEYSAMRD [KRAS_Y64_Q61H] | inactive: 0.508
74 | RTVDVYFGPQM [KIRREL3_Y332_R336Q] | inactive: 0.955
75 | DRLASYSDKVR [KRT10_Y160_L161S] | inactive: 0.649
76 | HFVDEYDRTIE [KRAS_Y32_P34R] | inactive: 0.607
77 | TGQEEYSAMRD [KRAS_Y64_A59T] | inactive: 0.353
78 | YHLGKYLQEVL [KLB_Y910_Y906H] | inactive: 0.946
79 | SIKDKYVTALF [KCNH2_Y611_YF] | inactive: 2.24
80 | SGGGSYGSGGG [KRT1_Y539] | inactive: 0.512
81 | FFLGKYLQEVL [KLB_Y910_YF] | inactive: 2.73
82 | SETSRYLSELF [KCNJ3_Y67_D70E] | inactive: 0.699
83 | GKSFIYAAFHA [KCNT1_Y563_T562I] | inactive: 2.29
84 | SSYDTYHLSRE [KIR3DL2_Y253_I252T] | inactive: 0.5
85 | AKYLGYPPPEI [KDR_Y357] | inactive: 1.1
86 | DHKRQYELLKL [KIF4B_Y684_R680H] | inactive: 1
87 | QEIATCRRLLE [KRT14_Y415_Y415C] | inactive: 0.29
88 | LESETYRRLLD [KRT12_Y429_I426S] | inactive: 0.796
89 | LITILYIGFLG [KCNQ1_Y267_T265I] | active: 3.9
90 | PQEVTYAQLDH [KIR3DL2_Y398] | active: 6.9

Target: SHP2 N-SH2 domain wild-type
Experiment: as above
Details: peptide library: pTyr-Var

Row | Binder | enrichment score
91 | AGHEEYSAMRD [KRAS_Y64_Q61H] | inactive: 0.607
92 | RTVDVYFGPQM [KIRREL3_Y332_R336Q] | inactive: 1.75
93 | DRLASYSDKVR [KRT10_Y160_L161S] | inactive: 0.74
94 | HFVDEYDRTIE [KRAS_Y32_P34R] | inactive: 1.02
95 | TGQEEYSAMRD [KRAS_Y64_A59T] | inactive: 0.508
96 | YHLGKYLQEVL [KLB_Y910_Y906H] | inactive: 0.967
97 | SIKDKYVTALF [KCNH2_Y611_YF] | inactive: 0.993
98 | SGGGSYGSGGG [KRT1_Y539] | inactive: 0.559
99 | FFLGKYLQEVL [KLB_Y910_YF] | inactive: 3.16
100 | SETSRYLSELF [KCNJ3_Y67_D70E] | inactive: 0.778
101 | GKSFIYAAFHA [KCNT1_Y563_T562I] | inactive: 2.23
102 | SSYDTYHLSRE [KIR3DL2_Y253_I252T] | inactive: 0.584
103 | AKYLGYPPPEI [KDR_Y357] | inactive: 1.19
104 | DHKRQYELLKL [KIF4B_Y684_R680H] | inactive: 0.886
105 | QEIATCRRLLE [KRT14_Y415_Y415C] | inactive: 0.397
106 | LESETYRRLLD [KRT12_Y429_I426S] | inactive: 0.625
107 | LITILYIGFLG [KCNQ1_Y267_T265I] | active: 3.89
108 | PQEVTYAQLDH [KIR3DL2_Y398] | active: 4.16
